# Data from article PMC4738361.
# These are yes or no findings as the source states them, for the method shown. Binding seen in cells or lysates may run through a third protein. Some results given as binding are weak or reduced against the parent protein; the word gives no strength. Sequences can lack the tags named with a protein.
# T1: HA-tagged mutant CDC6 dl 93–100 (U2OS) (human) (UniProt Q99741)
# T1 sequence: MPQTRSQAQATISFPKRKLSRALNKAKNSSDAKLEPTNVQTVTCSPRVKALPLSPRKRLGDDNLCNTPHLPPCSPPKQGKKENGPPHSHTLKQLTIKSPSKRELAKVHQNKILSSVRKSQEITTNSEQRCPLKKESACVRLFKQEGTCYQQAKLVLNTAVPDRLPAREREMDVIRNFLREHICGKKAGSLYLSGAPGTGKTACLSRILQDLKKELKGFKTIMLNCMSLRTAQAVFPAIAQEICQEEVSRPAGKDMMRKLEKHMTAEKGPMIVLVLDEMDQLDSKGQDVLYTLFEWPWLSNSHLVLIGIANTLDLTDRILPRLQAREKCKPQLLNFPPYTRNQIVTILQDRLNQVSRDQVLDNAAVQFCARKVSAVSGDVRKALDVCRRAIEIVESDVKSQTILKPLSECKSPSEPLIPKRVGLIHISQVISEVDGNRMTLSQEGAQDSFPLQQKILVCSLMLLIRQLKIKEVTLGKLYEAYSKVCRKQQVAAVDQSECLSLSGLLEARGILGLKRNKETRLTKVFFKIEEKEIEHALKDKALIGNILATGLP
# T2: HA-tagged mutant CDC6 AAA (U2OS) (human) (UniProt Q99741)
# T2 sequence: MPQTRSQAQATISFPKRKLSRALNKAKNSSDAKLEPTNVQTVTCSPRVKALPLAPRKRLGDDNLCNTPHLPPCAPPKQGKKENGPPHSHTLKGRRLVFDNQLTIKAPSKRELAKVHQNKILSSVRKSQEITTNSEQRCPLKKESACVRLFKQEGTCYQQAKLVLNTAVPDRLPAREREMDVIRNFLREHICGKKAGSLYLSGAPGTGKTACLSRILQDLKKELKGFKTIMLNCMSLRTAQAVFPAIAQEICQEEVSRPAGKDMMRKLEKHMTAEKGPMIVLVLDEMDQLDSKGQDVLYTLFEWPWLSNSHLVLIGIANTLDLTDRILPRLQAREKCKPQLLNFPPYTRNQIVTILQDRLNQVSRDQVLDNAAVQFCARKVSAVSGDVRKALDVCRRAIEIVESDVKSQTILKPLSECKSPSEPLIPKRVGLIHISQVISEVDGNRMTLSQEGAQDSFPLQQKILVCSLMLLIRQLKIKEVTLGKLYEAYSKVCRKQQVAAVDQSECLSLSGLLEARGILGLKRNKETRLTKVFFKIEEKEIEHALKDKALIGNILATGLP
# T3: HA-tagged mutant CDC6 DDD (U2OS) (human) (UniProt Q99741)
# T3 sequence: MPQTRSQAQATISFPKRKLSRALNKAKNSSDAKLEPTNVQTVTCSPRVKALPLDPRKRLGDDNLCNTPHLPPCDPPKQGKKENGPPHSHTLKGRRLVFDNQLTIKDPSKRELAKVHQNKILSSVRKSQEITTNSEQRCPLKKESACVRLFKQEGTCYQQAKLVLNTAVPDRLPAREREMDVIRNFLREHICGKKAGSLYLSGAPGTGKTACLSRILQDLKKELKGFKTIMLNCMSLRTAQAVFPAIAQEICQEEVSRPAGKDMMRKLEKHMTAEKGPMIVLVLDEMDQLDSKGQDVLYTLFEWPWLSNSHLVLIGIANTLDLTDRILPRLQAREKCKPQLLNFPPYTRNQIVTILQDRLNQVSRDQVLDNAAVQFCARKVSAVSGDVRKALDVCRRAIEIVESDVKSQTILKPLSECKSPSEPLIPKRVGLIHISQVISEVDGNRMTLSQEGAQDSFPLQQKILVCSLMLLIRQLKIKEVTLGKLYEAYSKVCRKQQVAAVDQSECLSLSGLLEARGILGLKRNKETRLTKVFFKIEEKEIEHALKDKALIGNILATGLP
# T4: HA-tagged wild-type CDC6 (U2OS) (human) (UniProt Q99741)
# T4 sequence: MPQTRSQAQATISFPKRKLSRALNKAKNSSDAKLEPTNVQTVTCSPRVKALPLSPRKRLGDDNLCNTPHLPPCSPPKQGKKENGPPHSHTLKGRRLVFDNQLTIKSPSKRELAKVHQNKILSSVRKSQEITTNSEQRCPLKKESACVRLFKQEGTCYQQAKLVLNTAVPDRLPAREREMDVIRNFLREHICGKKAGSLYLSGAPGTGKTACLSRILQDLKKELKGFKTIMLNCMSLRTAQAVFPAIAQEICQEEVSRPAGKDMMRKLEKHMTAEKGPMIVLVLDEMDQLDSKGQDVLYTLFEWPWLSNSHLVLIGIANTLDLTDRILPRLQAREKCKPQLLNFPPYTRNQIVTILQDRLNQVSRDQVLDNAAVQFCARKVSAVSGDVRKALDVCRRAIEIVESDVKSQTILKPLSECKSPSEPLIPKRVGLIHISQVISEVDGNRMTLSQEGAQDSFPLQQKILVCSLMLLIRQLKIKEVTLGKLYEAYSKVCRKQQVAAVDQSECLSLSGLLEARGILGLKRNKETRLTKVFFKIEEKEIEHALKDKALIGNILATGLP
# B1: Cyclin F (endogenous, U2OS cells) (protein, UniProt P41002 1-786)
# chain: MGSGGVVHCRCAKCFCYPTKRRIRRRPRNLTILSLPEDVLFHILKWLSVEDILAVRAVHSQLKDLVDNHASVWACASFQELWPSPGNLKLFERAAEKGNFEAAVKLGIAYLYNEGLSVSDEARAEVNGLKASRFFSLAERLNVGAAPFIWLFIRPPWSVSGSCCKAVVHESLRAECQLQRTHKASILHCLGRVLSLFEDEEKQQQAHDLFEEAAHQGCLTSSYLLWESDRRTDVSDPGRCLHSFRKLRDYAAKGCWEAQLSLAKACANANQLGLEVRASSEIVCQLFQASQAVSKQQVFSVQKGLNDTMRYILIDWLVEVATMKDFTSLCLHLTVECVDRYLRRRLVPRYRLQLLGIACMVICTRFISKEILTIREAVWLTDNTYKYEDLVRMMGEIVSALEGKIRVPTVVDYKEVLLTLVPVELRTQHLCSFLCELSLLHTSLSAYAPARLAAAALLLARLTHGQTQPWTTQLWDLTGFSYEDLIPCVLSLHKKCFHDDAPKDYRQVSLTAVKQRFEDKRYGEISQEEVLSYSQLCAALGVTQDSPDPPTFLSTGEIHAFLSSPSGRRTKRKRENSLQEDRGSFVTTPTAELSSQEETLLGSFLDWSLDCCSGYEGDQESEGEKEGDVTAPSGILDVTVVYLNPEQHCCQESSDEEACPEDKGPQDPQALALDTQIPATPGPKPLVRTSREPGKDVTTSGYSSVSTASPTSSVDGGLGALPQPTSVLSLDSDSHTQPCHHQARKSCLQCRPPSPPESSVPQQQVKRINLCIHSEEEDMNLGLVRL
# Columns and labels:
# Experiment in all cases: co-IP; U2OS cells transfected with HA-tagged CDC6 WT, AAA, DDD or dl 93–100; total cell extracts precipitated with anti-HA resin; immunoblot for Cyclin F
# [1] = target: T1, HA-tagged mutant CDC6 dl 93–100 (U2OS) (human)
# [2] = target: T2, HA-tagged mutant CDC6 AAA (U2OS) (human)
# [3] = target: T3, HA-tagged mutant CDC6 DDD (U2OS) (human)
# [4] = target: T4, HA-tagged wild-type CDC6 (U2OS) (human)
binder,measurement,setting,value
B1,binding,[1],no binding
same,binding,[2],binds
same,binding,[3],binds
same,binding,[4],binds
